Results: paper PMC6212790
This is one part of the list. At the low end of the ranking the order means little.

molecular target: T1, GST-Rok-C97-191 (UniProt O34857); experiment: protein binding microarray; settings: Rok is a gene silencer of Bacillus subtilis; high values mean tight binding; most listed sequences are background and not binding sites; double strand, one strand shown;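 note: rank score from −0.5 (least bound) to 0.5 (best bound)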
T1 sequence: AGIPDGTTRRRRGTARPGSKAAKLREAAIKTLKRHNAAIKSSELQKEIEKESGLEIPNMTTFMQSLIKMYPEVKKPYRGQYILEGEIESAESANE

Sequence	binding signal [E-score]
GGCTATGA	-0.0286
ATAACGCA	0.163
ACCGCGCG	0.0116
ACTTTCAG	-0.0105
GTGATATA	0.245
GGGCGACC	-0.415
CCGGCCCA	-0.223
AAAGTCGG	-0.062
AGCATTGG	-0.14
AACCCCCA	-0.393
CTCTATAA	0.0363
ATTTTACA	0.297
GAGCTATC	0.164
AGCAGACG	0.00301
AATATTCT	0.347
CTATCTTC	0.105
GCTGCACC	-0.237
TCGGCCCA	-0.114
CTTCCAAA	0.0546
ACCTGTGA	-0.126
ACCTAATG	-0.0772
GCAGTCCA	-0.165
CCTCTGCA	-0.219
TTCATAAA	0.229
CATTGACA	-0.0978

Sequence	binding signal [E-score]
ATTAAGCA	-0.0638
CGTAAAGA	-0.00312
TGTTCCAA	-0.105
CGCCTTTA	-0.278
GCTCACCC	-0.231
AAATTGGT	0.297
AACTGTCG	0.0055
CAGCTTTA	0.101
GGCAATTA	0.168
CACAGAGG	-0.0801
GACCGCTA	0.0642
AAGCCCCA	-0.204
ACGTTCAG	-0.147
TACGAGCA	0.0492
ACGTGCTG	0.00519
CATGAAGA	-0.0304
CTACGGCA	0.0776
AAACAACA	-0.00748
CCGATGAA	-0.155
GGCTAGCC	-0.178
GGCTCCAC	-0.216
CCAGATAG	0.179
AGGGCCGA	-0.305
AATTTGCA	0.0951
ACGCACTG	0.114

Sequence	binding signal [E-score]
AGCTAGCT	0.122
AGTCTATC	-0.0937
TAGGCAAA	0.00802
CGTAGCTC	-0.0684
CGCAAAAA	0.0321
GATCAGAC	0.0437
CAAAAACC	0.109
ATTAGAAA	0.282
GACAGGAC	-0.14
CCTGGGCC	-0.0592
CGCGAAAG	-0.243
ATTGCAAT	0.0829
ATTATCCG	0.0272
ACTGGGAG	-0.151
AAAAGGTA	0.293
AAAGACTT	-0.00647
CCCGGTAA	-0.0362
GGCATGCA	-0.192
CGTAATCC	-0.205
GTGCGCTA	-0.0229
ACTAACTC	0.125
AAAAAGAA	0.0124
AGATTTCC	0.196
ATCCCTGA	-0.205
ATAAACCC	0.0979

Sequence	binding signal [E-score]
CAATGACC	-0.175
AACAGCTG	-0.0197
AAAACTGT	0.0809
AAGCGCAT	-0.0193
ATCGGGTA	0.21
AATCTCAG	-0.0322
GCCCGTGA	-0.196
GAATAGCA	-0.0833
CGGGTTAA	-0.122
ATACCCCG	-0.111
GGGCCCCA	-0.293
GCAAATAA	0.158
CAGATGGA	-0.12
ATAGAATA	0.354
CTACACGA	0.0662
CGGCTTGC	-0.137
AGGTGGCG	0.0312
CCAGGCCG	-0.0324
AGGGCTCG	-0.236
GTAAGTCA	0.00791
AGGTAGAG	0.118
TAGACTCA	-0.0392
AACCTACC	0.232
AGCTTCTG	-0.0648
ATTAACTG	0.214

Sequence	binding signal [E-score]
GCTAGTTA	0.284
CCCCAAAC	-0.0481
CTCACATC	-0.132
ATTGGGCA	-0.172
ACGGCGGC	-0.213
CTAACTGC	-0.00452
CTAGGAAC	-0.0183
CACCTCCA	-0.255
ACCGGGTA	0.103
GACACCTC	-0.176
CGAGTTAA	0.148
TAGAGGCA	-0.0245
CGCACATC	0.00746
ACGCATCC	-0.149
AGAGGGAA	-0.173
CCGAGGTA	0.137
CATTTCCC	-0.214
GAGTTAGC	0.0102
AAATCGGT	-0.0067
AAAATGGC	0.0616
GCCGGACA	0.0879
CGGTACCG	0.0415
GGGCACCC	-0.354
AGAATGCA	0.038
ATCTTCGA	0.0445

Sequence	binding signal [E-score]
ACTATTAC	0.4
GCTATCCA	0.0235
AAACTGTG	-0.0049
CACCGTCA	-0.156
AGCACTGG	-0.253
AGCGCGGG	-0.317
CCCTGCAC	-0.227
ATCTTAAC	0.274
ATCCCTCA	-0.0288
AGCGATGG	-0.149
ACTAGCTG	0.212
ACAGTTAA	0.093
CAAAGCAC	-0.0357
AATTCTAG	0.325
CCTCGACG	-0.161
GTCAGCAC	-0.267
GCATCTCA	-0.0557
AGTCGATC	-0.00304
TGCTCCAA	-0.148
GCCGTCCA	-0.136
GATCTGGA	-0.159
ACTTCAAC	0.0391
AAGATGAG	0.0366
ACCAATGG	-0.00677
CAACTCCA	-0.0587

Sequence	binding signal [E-score]
CCGCACAC	-0.0305
GTGCATCA	-0.03
AGCCTACC	-0.0592
AGAATAAT	0.213
CTAAATGA	-0.0412
CCACGACG	-0.00537
AGTAAGCA	0.0637
AGGTAACG	-0.039
GGGAAACC	-0.209
AATCCACC	-0.195
ATTATTCC	0.253
AAGATCCA	-0.156
ATGCTTTA	0.0435
ATGGTCAC	0.00474
CGTGATCA	0.103
AGACATTG	-0.107
GTAAACGA	-0.119
GACCAAGC	-0.178
AAATTCAC	0.12
GCTAGAAC	0.18
CCGGATCG	-0.171
GTAATATA	0.335
CGGCCATC	-0.272
CCGCCCCG	-0.352
GCCGGTGA	-0.195

Sequence	binding signal [E-score]
GGAACATA	0.0302
AGGCGACA	-0.159
CCCGAGCC	-0.207
CCCAACGA	-0.243
ACTAGATA	0.403
AGTATGGA	-0.00621
CACGCCGC	-0.263
GGATGAAC	0.0137
ATGGTTGA	-0.213
CATGGAAA	0.0212
CGGTTAGA	0.0858
AGCTTCAC	0.0369
CGTACTAA	0.231
TGAGGACA	0.0106
CACAGGAG	-0.175
CTACGTCC	0.158
GCAGGCTA	-0.198
GAACTAAC	0.104
TAATTAAA	0.244
CCCATGGG	-0.301
GACGCAAC	0.178
GTCGCAAA	-0.0493
CATAAGTC	-0.0259
CGGTACAG	-0.00773
CATCGCAC	-0.108

Sequence	binding signal [E-score]
CGGTCTAG	-0.0476
CATTATCG	0.121
ATCGCGTG	-0.192
AGACCATA	0.123
GAATACGC	-0.102
CTAGAGGA	-0.154
AAGTTCAG	0.0688
ACGCTACA	0.123
AGCTTGCG	-0.087
CCTTAAGA	-0.0838
CTATGCCC	-0.171
AATGCCCT	0.0279
GCTCGGCC	-0.227
GGTTCTTA	-0.0251
CCACCGGA	0.0302
ACACGACA	0.0427
ACCTCGCC	-0.189
TGATTACA	0.129
ATGAGTTG	-0.00844
